Test results from paper PMC7349898.
No constants are given. Whether binding was seen depends on the method and setting.

T1: AtIDD15 (Arabidopsis) (UniProt F4IPE3)
T1 sequence: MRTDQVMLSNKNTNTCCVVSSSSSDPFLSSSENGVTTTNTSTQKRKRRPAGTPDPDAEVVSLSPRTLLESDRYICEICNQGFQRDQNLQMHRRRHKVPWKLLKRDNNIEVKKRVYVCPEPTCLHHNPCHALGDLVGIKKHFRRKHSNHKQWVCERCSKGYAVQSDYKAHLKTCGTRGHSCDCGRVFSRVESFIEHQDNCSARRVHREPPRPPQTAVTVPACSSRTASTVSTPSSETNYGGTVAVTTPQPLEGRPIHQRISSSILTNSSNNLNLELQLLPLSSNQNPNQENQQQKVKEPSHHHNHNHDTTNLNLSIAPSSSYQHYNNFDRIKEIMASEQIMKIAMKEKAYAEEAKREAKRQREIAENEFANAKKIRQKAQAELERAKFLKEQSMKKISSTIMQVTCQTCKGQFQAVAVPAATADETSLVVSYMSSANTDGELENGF

T2: AtIDD16 (Arabidopsis) (UniProt Q9FRH4)
T2 sequence: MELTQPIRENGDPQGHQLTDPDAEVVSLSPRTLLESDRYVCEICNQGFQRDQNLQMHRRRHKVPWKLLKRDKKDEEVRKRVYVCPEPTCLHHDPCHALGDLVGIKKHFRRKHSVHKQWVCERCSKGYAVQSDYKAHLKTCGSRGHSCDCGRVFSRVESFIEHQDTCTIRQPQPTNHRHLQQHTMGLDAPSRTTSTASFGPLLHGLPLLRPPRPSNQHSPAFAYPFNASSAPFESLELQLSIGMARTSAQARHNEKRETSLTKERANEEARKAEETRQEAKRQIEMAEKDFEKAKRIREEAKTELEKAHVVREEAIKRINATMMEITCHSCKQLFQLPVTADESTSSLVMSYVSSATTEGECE

B1: SLR1 (protein, UniProt Q7G7J6 1-625)
chain: MKREYQEAGGSSGGGSSADMGSCKDKVMAGAAGEEEDVDELLAALGYKVRSSDMADVAQKLEQLEMAMGMGGVSAPGAADDGFVSHLATDTVHYNPSDLSSWVESMLSELNAPLPPIPPAPPAARHASTSSTVTGGGGSGFFELPAAADSSSSTYALRPISLPVVATADPSAADSARDTKRMRTGGGSTSSSSSSSSSLGGGASRGSVVEAAPPATQGAAAANAPAVPVVVVDTQEAGIRLVHALLACAEAVQQENFAAAEALVKQIPTLAASQGGAMRKVAAYFGEALARRVYRFRPADSTLLDAAFADLLHAHFYESCPYLKFAHFTANQAILEAFAGCHRVHVVDFGIKQGMQWPALLQALALRPGGPPSFRLTGVGPPQPDETDALQQVGWKLAQFAHTIRVDFQYRGLVAATLADLEPFMLQPEGEADANEEPEVIAVNSVFELHRLLAQPGALEKVLGTVHAVRPRIVTVVEQEANHNSGSFLDRFTESLHYYSTMFDSLEGGSSGQAELSPPAAGGGGGTDQVMSEVYLGRQICNVVACEGAERTERHETLGQWRNRLGRAGFEPVHLGSNAYKQASTLLALFAGGDGYRVEEKEGCLTLGWHTRPLIATSAWRVAAA
B2: SHORT-ROOT (protein, UniProt Q9SZF7 1-531)
chain: MDTLFRLVSLQQQQQSDSIITNQSSLSRTSTTTTGSPQTAYHYNFPQNDVVEECFNFFMDEEDLSSSSSHHNHHNHNNPNTYYSPFTTPTQYHPATSSTPSSTAAAAALASPYSSSGHHNDPSAFSIPQTPPSFDFSANAKWADSVLLEAARAFSDKDTARAQQILWTLNELSSPYGDTEQKLASYFLQALFNRMTGSGERCYRTMVTAAATEKTCSFESTRKTVLKFQEVSPWATFGHVAANGAILEAVDGEAKIHIVDISSTFCTQWPTLLEALATRSDDTPHLRLTTVVVANKFVNDQTASHRMMKEIGNRMEKFARLMGVPFKFNIIHHVGDLSEFDLNELDVKPDEVLAINCVGAMHGIASRGSPRDAVISSFRRLRPRIVTVVEEEADLVGEEEGGFDDEFLRGFGECLRWFRVCFESWEESFPRTSNERLMLERAAGRAIVDLVACEPSDSTERRETARKWSRRMRNSGFGAVGYSDEVADDVRALLRRYKEGVWSMVQCPDAAGIFLCWRDQPVVWASAWRPT
B3: RGA-LIKE 1 (protein, UniProt Q9C8Y3 1-511)
chain: MKREHNHRESSAGEGGSSSMTTVIKEEAAGVDELLVVLGYKVRSSDMADVAHKLEQLEMVLGDGISNLSDETVHYNPSDLSGWVESMLSDLDPTRIQEKPDSEYDLRAIPGSAVYPRDEHVTRRSKRTRIESELSSTRSVVVLDSQETGVRLVHALLACAEAVQQNNLKLADALVKHVGLLASSQAGAMRKVATYFAEGLARRIYRIYPRDDVALSSFSDTLQIHFYESCPYLKFAHFTANQAILEVFATAEKVHVIDLGLNHGLQWPALIQALALRPNGPPDFRLTGIGYSLTDIQEVGWKLGQLASTIGVNFEFKSIALNNLSDLKPEMLDIRPGLESVAVNSVFELHRLLAHPGSIDKFLSTIKSIRPDIMTVVEQEANHNGTVFLDRFTESLHYYSSLFDSLEGPPSQDRVMSELFLGRQILNLVACEGEDRVERHETLNQWRNRFGLGGFKPVSIGSNAYKQASMLLALYAGADGYNVEENEGCLLLGWQTRPLIATSAWRINRVE
B4: SCARECROW-LIKE 3 (protein, UniProt Q9LPR8 1-482)
chain: MVAMFQEDNGTSSVASSPLQVFSTMSLNRPTLLASSSPFHCLKDLKPEERGLYLIHLLLTCANHVASGSLQNANAALEQLSHLASPDGDTMQRIAAYFTEALANRILKSWPGLYKALNATQTRTNNVSEEIHVRRLFFEMFPILKVSYLLTNRAILEAMEGEKMVHVIDLDASEPAQWLALLQAFNSRPEGPPHLRITGVHHQKEVLEQMAHRLIEEAEKLDIPFQFNPVVSRLDCLNVEQLRVKTGEALAVSSVLQLHTFLASDDDLMRKNCALRFQNNPSGVDLQRVLMMSHGSAAEARENDMSNNNGYSPSGDSASSLPLPSSGRTDSFLNAIWGLSPKVMVVTEQDSDHNGSTLMERLLESLYTYAALFDCLETKVPRTSQDRIKVEKMLFGEEIKNIISCEGFERRERHEKLEKWSQRIDLAGFGNVPLSYYAMLQARRLLQGCGFDGYRIKEESGCAVICWQDRPLYSVSAWRCRK

The binders below were run against T1, AtIDD15 (Arabidopsis) (assay: two-hybrid; Gal4 yeast two-hybrid; baits in pGBT9, preys in pGAD424; yeast strain PJ69-4A; serial dilutions spotted on -LW and -LWH with an appropriate concentration of 3-AT; 3 days at 30 °C).

binding | Binder
no binding | B1
no binding | B2
no binding | B4

Binder | binding
B3 | no binding

These binders were tested against T2, AtIDD16 (Arabidopsis) in the same assay as above.

binding | Binder
no binding | B1
no binding | B2
no binding | B4

Binder | binding
B3 | no binding
